Laboratory results taken from PMC9911399, “Two distinct binding modes provide the RNA-binding protein RbFox with extraordinary sequence specificity”.
Where a chain is given by its changes, count along the chain named. The list shows a part of the results.

T1: RBFOX1 RRM RbFoxmut (Fox-RRM*) (Homo sapiens, UniProt Q9NWB1 109-208, R118D;E147R;N151S;E152T)
T1 sequence: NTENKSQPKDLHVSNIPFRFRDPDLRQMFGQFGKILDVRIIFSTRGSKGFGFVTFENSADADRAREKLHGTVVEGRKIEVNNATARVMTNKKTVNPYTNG

B1: UCCACUA (DNA:RNA)
RNA: GGGAGACCGGAAUUCAGAUUGUCCUCCACUAUUAAAUCCCGUCGUAGCCACCA
DNA 1: CAATCTGAATTCCGGTCTCCC
DNA 2: TGGTGGCTACGACGGGATT
B2: UAGAGAC (DNA:RNA)
RNA: B1 RNA with C26A, C27G, C29G, U30A, A31C
DNA 1: CAATCTGAATTCCGGTCTCCC
DNA 2: TGGTGGCTACGACGGGATT
B3: GUUUUCG (DNA:RNA)
RNA: GGGAGACCGGAAUUCAGAUUGUCCGUUUUCGUUAAAUCCCGUCGUAGCCACCA
DNA 1: CAATCTGAATTCCGGTCTCCC
DNA 2: TGGTGGCTACGACGGGATT
B4: GUCAAGU (DNA:RNA)
RNA: B3 RNA with U27C, U28A, U29A, C30G, G31U
DNA 1: CAATCTGAATTCCGGTCTCCC
DNA 2: TGGTGGCTACGACGGGATT
B5: AGUGACU (DNA:RNA)
RNA: B3 RNA with G25A, U26G, U28G, U29A, G31U
DNA 1: CAATCTGAATTCCGGTCTCCC
DNA 2: TGGTGGCTACGACGGGATT
B6: UCCGGUU (DNA:RNA)
RNA: B1 RNA with A28G, C29G, A31U
DNA 1: CAATCTGAATTCCGGTCTCCC
DNA 2: TGGTGGCTACGACGGGATT
B7: UUACCGU (DNA:RNA)
RNA: B1 RNA with C26U, C27A, A28C, U30G, A31U
DNA 1: CAATCTGAATTCCGGTCTCCC
DNA 2: TGGTGGCTACGACGGGATT
B8: UAUGGCA (DNA:RNA)
RNA: B3 RNA with G25U, U26A, U28G, U29G, G31A
DNA 1: CAATCTGAATTCCGGTCTCCC
DNA 2: TGGTGGCTACGACGGGATT
B9: CUGAAAA (DNA:RNA)
RNA: B1 RNA with U25C, C26U, C27G, C29A, U30A
DNA 1: CAATCTGAATTCCGGTCTCCC
DNA 2: TGGTGGCTACGACGGGATT
B10: UAUCCAC (DNA:RNA)
RNA: B1 RNA with C26A, C27U, A28C, U30A, A31C
DNA 1: CAATCTGAATTCCGGTCTCCC
DNA 2: TGGTGGCTACGACGGGATT
B11: GCGUAUA (DNA:RNA)
RNA: B1 RNA with U25G, C27G, A28U, C29A
DNA 1: CAATCTGAATTCCGGTCTCCC
DNA 2: TGGTGGCTACGACGGGATT
B12: CUCUUUU (DNA:RNA)
RNA: B3 RNA with G25C, U27C, C30U, G31U
DNA 1: CAATCTGAATTCCGGTCTCCC
DNA 2: TGGTGGCTACGACGGGATT
B13: CAUGUAG (DNA:RNA)
RNA: B3 RNA with G25C, U26A, U28G, C30A
DNA 1: CAATCTGAATTCCGGTCTCCC
DNA 2: TGGTGGCTACGACGGGATT
B14: AGAUGGU (DNA:RNA)
RNA: B3 RNA with G25A, U26G, U27A, U29G, C30G, G31U
DNA 1: CAATCTGAATTCCGGTCTCCC
DNA 2: TGGTGGCTACGACGGGATT
B15: UUAAUUA (DNA:RNA)
RNA: B1 RNA with C26U, C27A, C29U
DNA 1: CAATCTGAATTCCGGTCTCCC
DNA 2: TGGTGGCTACGACGGGATT
B16: UGACUUA (DNA:RNA)
RNA: B1 RNA with C26G, C27A, A28C, C29U
DNA 1: CAATCTGAATTCCGGTCTCCC
DNA 2: TGGTGGCTACGACGGGATT
B17: AUAGGAA (DNA:RNA)
RNA: B3 RNA with G25A, U27A, U28G, U29G, C30A, G31A
DNA 1: CAATCTGAATTCCGGTCTCCC
DNA 2: TGGTGGCTACGACGGGATT
B18: AACCAGA (DNA:RNA)
RNA: B1 RNA with U25A, C26A, A28C, C29A, U30G
DNA 1: CAATCTGAATTCCGGTCTCCC
DNA 2: TGGTGGCTACGACGGGATT
B19: AGUGUUG (DNA:RNA)
RNA: B3 RNA with G25A, U26G, U28G, C30U
DNA 1: CAATCTGAATTCCGGTCTCCC
DNA 2: TGGTGGCTACGACGGGATT
B20: GAUUAUA (DNA:RNA)
RNA: B3 RNA with U26A, U29A, C30U, G31A
DNA 1: CAATCTGAATTCCGGTCTCCC
DNA 2: TGGTGGCTACGACGGGATT
B21: UCAGUUG (DNA:RNA)
RNA: B1 RNA with C27A, A28G, C29U, A31G
DNA 1: CAATCTGAATTCCGGTCTCCC
DNA 2: TGGTGGCTACGACGGGATT
B22: CCUUUUA (DNA:RNA)
RNA: B3 RNA with G25C, U26C, C30U, G31A
DNA 1: CAATCTGAATTCCGGTCTCCC
DNA 2: TGGTGGCTACGACGGGATT
B23: AGCCCAG (DNA:RNA)
RNA: B1 RNA with U25A, C26G, A28C, U30A, A31G
DNA 1: CAATCTGAATTCCGGTCTCCC
DNA 2: TGGTGGCTACGACGGGATT
B24: UGGGAAU (DNA:RNA)
RNA: B1 RNA with C26G, C27G, A28G, C29A, U30A, A31U
DNA 1: CAATCTGAATTCCGGTCTCCC
DNA 2: TGGTGGCTACGACGGGATT
B25: ACCAAGU (DNA:RNA)
RNA: B1 RNA with U25A, C29A, U30G, A31U
DNA 1: CAATCTGAATTCCGGTCTCCC
DNA 2: TGGTGGCTACGACGGGATT
B26: AUAUCCA (DNA:RNA)
RNA: B3 RNA with G25A, U27A, U29C, G31A
DNA 1: CAATCTGAATTCCGGTCTCCC
DNA 2: TGGTGGCTACGACGGGATT
B27: ACACACA (DNA:RNA)
RNA: B1 RNA with U25A, C27A, A28C, C29A, U30C
DNA 1: CAATCTGAATTCCGGTCTCCC
DNA 2: TGGTGGCTACGACGGGATT
B28: GGUUUAA (DNA:RNA)
RNA: B3 RNA with U26G, C30A, G31A
DNA 1: CAATCTGAATTCCGGTCTCCC
DNA 2: TGGTGGCTACGACGGGATT
B29: UCAACCA (DNA:RNA)
RNA: B1 RNA with C27A, U30C
DNA 1: CAATCTGAATTCCGGTCTCCC
DNA 2: TGGTGGCTACGACGGGATT
B30: GAUGUCG (DNA:RNA)
RNA: B3 RNA with U26A, U28G
DNA 1: CAATCTGAATTCCGGTCTCCC
DNA 2: TGGTGGCTACGACGGGATT
B31: AUUUUUC (DNA:RNA)
RNA: B3 RNA with G25A, C30U, G31C
DNA 1: CAATCTGAATTCCGGTCTCCC
DNA 2: TGGTGGCTACGACGGGATT

These binders were tested against T1, RBFOX1 RRM RbFoxmut (Fox-RRM*) (assay: EMSA; HiTS-Eq, 1 nM pool, 10 min; buffer printed only for the single-RNA assays: 10 mM Tris pH 7.5, 150 mM NaCl, 3.4 mM EDTA, 0.001% NP-40, 30 C). Conditions: tags: His6 N-terminal (pET28a); label: 5' 32P.
How it was run: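 A pool of RNA with 7 randomized nucleotides, 5′-radiolabelled and with DNA-annealed flanks, was equilibrated at 1 nM for 10 min in 50 µL with purified RbFox RRM, wild type or mutant, across increasing protein concentrations. Free RNA was separated by 8% native PAGE, excised, reverse-transcribed, barcoded by PCR and sequenced. Relative association constants were obtained from read-count changes of each RNA species versus the control reaction and normalised to the cognate motif.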

Row | Binder | binding signal
1 | B1 | 0.062 KA relative to UGCAUGU
2 | B2 | 0.0828 KA relative to UGCAUGU
3 | B3 | 0.0798 KA relative to UGCAUGU
4 | B4 | 0.138 KA relative to UGCAUGU
5 | B5 | 0.0797 KA relative to UGCAUGU
6 | B6 | 0.0485 KA relative to UGCAUGU
7 | B7 | 0.0772 KA relative to UGCAUGU
8 | B8 | 0.0915 KA relative to UGCAUGU
9 | B9 | 0.0537 KA relative to UGCAUGU
10 | B10 | 0.0934 KA relative to UGCAUGU
11 | B11 | 0.135 KA relative to UGCAUGU
12 | B12 | 0.0991 KA relative to UGCAUGU
13 | B13 | 0.161 KA relative to UGCAUGU
14 | B14 | 0.117 KA relative to UGCAUGU
15 | B15 | 0.102 KA relative to UGCAUGU
16 | B16 | 0.108 KA relative to UGCAUGU

Row | Binder | binding signal
17 | B17 | 0.0888 KA relative to UGCAUGU
18 | B18 | 0.107 KA relative to UGCAUGU
19 | B19 | 0.186 KA relative to UGCAUGU
20 | B20 | 0.0871 KA relative to UGCAUGU
21 | B21 | 0.119 KA relative to UGCAUGU
22 | B22 | 0.0871 KA relative to UGCAUGU
23 | B23 | 0.123 KA relative to UGCAUGU
24 | B24 | 0.138 KA relative to UGCAUGU
25 | B25 | 0.0821 KA relative to UGCAUGU
26 | B26 | 0.115 KA relative to UGCAUGU
27 | B27 | 0.101 KA relative to UGCAUGU
28 | B28 | 0.0823 KA relative to UGCAUGU
29 | B29 | 0.0628 KA relative to UGCAUGU
30 | B30 | 0.145 KA relative to UGCAUGU
31 | B31 | 0.0727 KA relative to UGCAUGU
